Whole data set: some 2,900 compounds, median “NF-kB SEAP reporter activity, fold change vs agonist alone” near 0.99, cut for the highest 2% near 2.6. The list shows a part of the results.

The values below come from the supplement of paper PMC10037445.

Assay [1] concerns RAW-Dual. The assay is described as follows: NF-kB SEAP reporter activity, fold change vs agonist alone; cytotoxicity flag (confluency mask): cytotoxic (confluency <70% of control); higher = enhanced NF-kB activity. An outline of the steps:
(§1)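 Supernatant from RAW-Dual macrophages was read after 20 hours for IRF by QuantiLuc luminescence and for NF-κB by QuantiBlue absorbance at 620 nm. The cells (50,000 cells/well in DMEM, 384-well plates, 37 °C, 5% CO2) had received 50 nL of library stock by pin tool and, 1 h later, a PRR agonist. Reporter activity is expressed relative to agonist-alone wells as fold change, and wells were flagged cytotoxic if IncuCyte confluency was under 70% of agonist controls in both mask sets.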

The subject of assay [2] is RAW-Dual. Description: NF-kB SEAP reporter activity, fold change vs agonist alone; higher = enhanced NF-kB activity. Particulars: library stock concentration (final ~1000-fold dilution): 10 mM. An outline of the steps: as §1
In assay [3] the test system is RAW-Dual. The assay is described as follows: NF-kB SEAP reporter activity, fold change vs agonist alone; cytotoxicity flag (confluency mask): not cytotoxic; higher = enhanced NF-kB activity. An outline of the steps:
as §1

Where [4] appears, read: agonist: ODN 1826 (TLR9) 0.5 ug/mL.
Setting [5] is: agonist: Pam2CSK4 (TLR2/6) 0.1 ug/mL.
Setting [6] is: agonist: Pam3CSK4 (TLR2/1) 0.1 ug/mL.
[7] abbreviates: cytotoxicity flag (confluency mask): cytotoxic (confluency <70% of control), agonist: Imiquimod (TLR7) […].
Where [8] appears, read: cytotoxicity flag (confluency mask): cytotoxic (confluency <70% of control), agonist: MPLA (TLR4) […].
Setting [9] is: cytotoxicity flag (confluency mask): not cytotoxic, agonist: Imiquimod (TLR7) […].
The mark [10] stands for this setting: cytotoxicity flag (confluency mask): not cytotoxic, agonist: MPLA (TLR4) […].

Take `COc1cc2c(cc1OC)-c1cc3nc4ccccc4nc3n1C(C)(C)C2` (library stock concentration (final ~1000-fold dilution): 10 mM): the “NF-kB SEAP reporter activity” value in assay [1] (agonist: LPS (TLR4) 0.1 ug/mL) was found to be 0.843; in assay [1] (setting [4]), 0.2; in assay [1] (setting [5]) it was 0.183; in assay [1] (setting [6]), 0.135.

As to `COc1cc2c(cc1OC)-c1cc3nc4ccccc4nc3n1C(C)(C)C2`, the “NF-kB SEAP reporter activity” value was determined as 0.621 in assay [2] (setting [7]) and 0.511 in assay [2] (setting [8]).

Turning to `Oc1cc(O)c2c(c1)OC(c1ccc(O)c(O)c1)C(O)[C@H]2c1c(O)cc(O)c2c1OC(c1ccc(O)c(O)c1)C(O)C2` (some centres not stated), the “NF-kB SEAP reporter activity” value was 0.823 in assay [2] (setting [9]) and 1.01 in assay [2] (setting [10]).

With `Oc1cc(O)c2c(c1)OC(c1ccc(O)c(O)c1)C(O)[C@H]2c1c(O)cc(O)c2c1OC(c1ccc(O)c(O)c1)C(O)C2` (some centres not stated) (library stock concentration (final ~1000-fold dilution): 10 mM), the “NF-kB SEAP reporter activity” value in assay [3] (agonist: LPS (TLR4) 0.1 ug/mL) worked out at 1.28; in assay [3] (setting [4]), 1.06; in assay [3] (setting [5]), 1.08; in assay [3] (setting [6]), 1.17.

Take `Nc1cccc(-c2cc3c(Oc4cccc(O)c4)ncnc3[nH]2)c1` (library stock concentration (final ~1000-fold dilution): 10 mM): the “NF-kB SEAP reporter activity” value in assay [3] (agonist: LPS (TLR4) 0.1 ug/mL) amounted to 0.316; in assay [3] (setting [4]), 0.796; in assay [3] (setting [5]) it was 0.5; in assay [3] (setting [6]), 0.521.

Consider `Nc1cccc(-c2cc3c(Oc4cccc(O)c4)ncnc3[nH]2)c1`, for which the “NF-kB SEAP reporter activity” value in assay [2] (setting [9]) came to 1.67; in assay [2] (setting [10]), 0.913.

With `COc1ccc(C(C)=O)c(O)c1` (library stock concentration (final ~1000-fold dilution): 10 mM), the “NF-kB SEAP reporter activity” value in assay [3] (agonist: LPS (TLR4) 0.1 ug/mL) is 1.28; in assay [3] (setting [4]), 0.98; in assay [3] (setting [5]) it was 1.2; in assay [3] (setting [6]), 1.22.

As for `COc1ccc(C(C)=O)c(O)c1`, the “NF-kB SEAP reporter activity” value in assay [2] (setting [9]) came to 0.79; in assay [2] (setting [10]), 1.04.

As for `COc1ccc(-n2nc(C(N)=O)c3c2C(=O)N(c2ccc(N4CCCCC4=O)cc2)CC3)cc1`, the “NF-kB SEAP reporter activity” value came to 1.07 in assay [2] (setting [9]) and 1.02 in assay [2] (setting [10]).

As for `COc1ccc(-n2nc(C(N)=O)c3c2C(=O)N(c2ccc(N4CCCCC4=O)cc2)CC3)cc1` (library stock concentration (final ~1000-fold dilution): 10 mM), the “NF-kB SEAP reporter activity” value in assay [3] (agonist: LPS (TLR4) 0.1 ug/mL) turned out to be 0.847; in assay [3] (setting [4]), 1.13; in assay [3] (setting [5]), 1.07; in assay [3] (setting [6]), 1.12.

With `Nc1ccc(F)cc1NC(=O)c1ccc(CNC(=O)/C=C/c2cccnc2)cc1`, the “NF-kB SEAP reporter activity” value in assay [2] (setting [9]) is 1.65; in assay [2] (setting [10]) it was 1.89.

For `Nc1ccc(F)cc1NC(=O)c1ccc(CNC(=O)/C=C/c2cccnc2)cc1` (library stock concentration (final ~1000-fold dilution): 10 mM), the “NF-kB SEAP reporter activity” value in assay [3] (agonist: LPS (TLR4) 0.1 ug/mL) was determined as 3.7; in assay [3] (setting [4]), 3.18; in assay [3] (setting [5]), 0.749; in assay [3] (setting [6]), 1.53.

`COc1ccc(COc2cc3oc(=O)c4cc(C(C)O)ccc4c3cc2OC)cc1` (configuration not stated) (library stock concentration (final ~1000-fold dilution): 10 mM): the “NF-kB SEAP reporter activity” value in assay [3] (agonist: LPS (TLR4) 0.1 ug/mL) came out at 1.12; in assay [3] (setting [4]), 1.06; in assay [3] (setting [5]) it was 1.06; in assay [3] (setting [6]), 1.03.

Consider `COc1ccc(COc2cc3oc(=O)c4cc(C(C)O)ccc4c3cc2OC)cc1` (configuration not stated), for which the “NF-kB SEAP reporter activity” value in assay [2] (setting [9]) came to 1.21; in assay [2] (setting [10]), 1.09.

For the molecule `CC/C=C\C/C=C\C/C=C\C/C=C\C/C=C\C/C=C\CCC(=O)NCCNC(=O)c1ccccc1O` (library stock concentration (final ~1000-fold dilution): 10 mM), the “NF-kB SEAP reporter activity” value turned out to be 0.318 in assay [1] (agonist: LPS (TLR4) 0.1 ug/mL), 0.298 in assay [1] (setting [4]), 0.133 in assay [1] (setting [5]) and 0.184 in assay [1] (setting [6]).

Regarding `CC/C=C\C/C=C\C/C=C\C/C=C\C/C=C\C/C=C\CCC(=O)NCCNC(=O)c1ccccc1O`, the “NF-kB SEAP reporter activity” value turned out to be 0.248 in assay [2] (setting [7]) and 1.54 in assay [2] (setting [8]).

Turning to `CC(C)C(NC(=O)C(CC(=O)O)NC(=O)C(CCCCN)NC(=O)C(N)CCCNC(=N)N)C(=O)NC(Cc1ccc(O)cc1)C(=O)O` (configuration not stated), the results for the “NF-kB SEAP reporter activity” value in assay [2] (setting [9]) and in assay [2] (setting [10]) were 1.14 and 0.967, respectively.

Regarding `CC(C)C(NC(=O)C(CC(=O)O)NC(=O)C(CCCCN)NC(=O)C(N)CCCNC(=N)N)C(=O)NC(Cc1ccc(O)cc1)C(=O)O` (configuration not stated) (library stock concentration (final ~1000-fold dilution): 10 mM), the “NF-kB SEAP reporter activity” value in assay [3] (agonist: LPS (TLR4) 0.1 ug/mL) amounted to 1.27; in assay [3] (setting [4]), 1.1; in assay [3] (setting [5]), 1.19; in assay [3] (setting [6]), 1.17.

Turning to `c1ccc(Cn2c(-c3ccc(OCC(C4CCNCC4)n4c(-c5ccccc5)nc5ccccc54)cc3)nc3ccccc32)cc1` (configuration not stated) (library stock concentration (final ~1000-fold dilution): 10 mM), the “NF-kB SEAP reporter activity” value was determined as 0.204 in assay [3] (agonist: LPS (TLR4) 0.1 ug/mL), 0.181 in assay [3] (setting [4]), 0.0667 in assay [3] (setting [5]) and 0.138 in assay [3] (setting [6]).

Regarding `c1ccc(Cn2c(-c3ccc(OCC(C4CCNCC4)n4c(-c5ccccc5)nc5ccccc54)cc3)nc3ccccc32)cc1` (configuration not stated), the “NF-kB SEAP reporter activity” value came out at 0.157 in assay [2] (setting [9]) and 0.247 in assay [2] (setting [10]).

`CCOC(=O)c1ccc(N2NC(=O)/C(=C/c3ccc([N+](=O)[O-])o3)C2=O)cc1`: the “NF-kB SEAP reporter activity” value in assay [2] (setting [9]) was 1.13; in assay [2] (setting [10]) it was 1.08.

Consider `CCOC(=O)c1ccc(N2NC(=O)/C(=C/c3ccc([N+](=O)[O-])o3)C2=O)cc1` (library stock concentration (final ~1000-fold dilution): 10 mM), for which the “NF-kB SEAP reporter activity” value is 0.275 in assay [3] (agonist: LPS (TLR4) 0.1 ug/mL), 1.38 in assay [3] (setting [4]), 0.609 in assay [3] (setting [5]) and 0.528 in assay [3] (setting [6]).

For `O=C(O)c1ccc(N2C(=O)/C(=C/c3ccc(-c4ccc([N+](=O)[O-])cc4)o3)C=C2c2ccccc2)cc1` (library stock concentration (final ~1000-fold dilution): 10 mM), the “NF-kB SEAP reporter activity” value in assay [3] (agonist: LPS (TLR4) 0.1 ug/mL) was found to be 0.932; in assay [3] (setting [4]), 0.719; in assay [3] (setting [5]) it was 0.387; in assay [3] (setting [6]), 0.213.

Regarding `O=C(O)c1ccc(N2C(=O)/C(=C/c3ccc(-c4ccc([N+](=O)[O-])cc4)o3)C=C2c2ccccc2)cc1`, the “NF-kB SEAP reporter activity” value is 0.786 in assay [2] (setting [9]) and 0.817 in assay [2] (setting [10]).
